Experimental data published in the supplement of paper PMC12217912.
The other results are listed elsewhere or left out. Sequences were assembled here from the parent chain. Values near 0.05 are background.

B1: TEV protease; numbered along this chain (parent)
chain: MGESLFKGPRDYNPISSSICHLTNESDGHTTSLYGIGFGPFIITNKHLFRRNNGTLVVQSLHGVFKVKDTTTLQQHLVDGRDMIIIRMPKDFPPFPQKLKFREPQREERICLVTTNFQTKSMSSMVSDTSCTFPSGDGIFWKHWIQTKDGQCGSPLVSTRDGFIVGIHSASNFTNTNNYFTSVPKNFMELLTNQEAQQWVSGWRLNADSVLWGGHKVFMVKPEEPFQPVKEATQL

Variants of: B1
Assay: raw area under fraction-flipped curve 0-4 h after induction (AUC4h, not background-subtracted), DNA-recorder readout of cleavage of the substrate (dimensionless); higher = more cleavage of the substrate by the protease variant
Settings: temperature: 34 °C; time window: 0-4 h after rhamnose induction
Method: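 In vivo DNA recorder in E. coli TOP10(DE3) ΔrhaA at 34 °C. Each TEVp single-site mutant (parent TEVp 0) is paired with a single-site variant of the 7-mer TEVs (canonical ENLYFQ|S). The substrate sits between flexible linkers in a Bxb1-sfGFP-TEVs-SsrA fusion, so cleavage stabilises Bxb1 and speeds flipping of a recombination array, read by NGS. The value is the raw area under the fraction-flipped curve over 0-4 h after rhamnose induction (AUC4h), with ≥20 reads per time point. It is not background-subtracted; inactive controls average about 0.047.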
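Further: Bxb1 expression induced with 0.2% (w/v) L-rhamnose at OD600 near 0.5, cultures sampled hourly, flipped fraction per protease–substrate barcode pair counted by paired-end Illumina sequencing.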

| Variant | area with substrate ENLYAQS | area with substrate ENLYCQS | area with substrate ENLYDQS | area with substrate ENLYEQS | area with substrate ENLYGQS | area with substrate ENLYHQS | area with substrate ENLYIQS | area with substrate ENLYKQS | area with substrate ENLYMQS | area with substrate ENLYNQS | area with substrate ENLYPQS | area with substrate ENLYQQS | area with substrate ENLYRQS | area with substrate ENLYVQS | area with substrate ENLYWQS | area with substrate ENLYYQS | area with substrate ENLYLQS | area with substrate ENLYSQS | area with substrate ENLYTQS |
| --- | --- | --- | --- | --- | --- | --- | --- | --- | --- | --- | --- | --- | --- | --- | --- | --- | --- | --- | --- |
| S17K | 0.0746 | 0.0977 | 0.0635 | 0.073 | 0.0694 | 0.07 | 0.111 | 0.0576 | 0.0727 | 0.0708 | 0.0446 | 0.0673 | 0.0677 | 0.13 | 0.119 | 0.0648 |  |  |  |
| S17L | 0.0644 | 0.0693 | 0.0571 | 0.0662 | 0.0666 | 0.0671 | 0.0817 | 0.0563 | 0.0906 | 0.0565 | 0.0623 | 0.0756 |  | 0.136 | 0.0869 | 0.0636 | 0.0745 | 0.0652 |  |
| G213D | 0.0593 | 0.0654 | 0.0642 | 0.0693 | 0.0636 | 0.0597 |  | 0.0522 |  | 0.0453 |  | 0.0506 |  | 0.082 |  | 0.0666 |  | 0.0657 | 0.0798 |
| M122H | 0.0787 |  | 0.0735 | 0.063 |  | 0.0695 | 0.107 |  | 0.0935 | 0.0617 | 0.0729 |  | 0.0607 | 0.135 | 0.0694 |  | 0.0962 |  |  |
| N45A | 0.0669 | 0.0794 | 0.0647 | 0.0637 | 0.0615 | 0.0618 | 0.0848 | 0.0586 | 0.0556 | 0.063 | 0.054 | 0.0633 | 0.0626 | 0.0844 | 0.0589 | 0.0663 | 0.0727 |  | 0.0793 |
| F49C | 0.0687 |  | 0.0663 | 0.0511 | 0.0657 | 0.055 | 0.0641 | 0.0605 | 0.0434 | 0.0435 | 0.0456 |  | 0.0457 | 0.0716 |  |  |  |  | 0.0579 |
| K66I | 0.0867 |  | 0.0494 | 0.0619 | 0.0409 | 0.0766 |  | 0.072 | 0.116 |  | 0.0864 | 0.0684 | 0.0742 | 0.0938 |  |  |  |  | 0.0896 |
| P14R | 0.0682 |  | 0.0683 | 0.0623 | 0.0694 | 0.0564 | 0.129 | 0.055 | 0.106 | 0.0698 | 0.0855 | 0.0612 | 0.0376 | 0.136 | 0.0607 | 0.057 |  | 0.0597 |  |
| I85V | 0.0704 |  | 0.0636 | 0.0612 | 0.0683 | 0.0628 | 0.0966 | 0.0762 | 0.0709 | 0.0638 |  |  | 0.0603 | 0.114 | 0.102 |  | 0.0633 | 0.0524 | 0.0752 |
| S60Y | 0.0794 |  | 0.0567 | 0.0673 |  | 0.0655 | 0.132 |  | 0.098 | 0.0641 | 0.0939 | 0.0619 | 0.061 | 0.101 |  | 0.0247 | 0.0838 |  |  |
| T115W | 0.0911 | 0.0975 | 0.0518 | 0.101 | 0.0557 | 0.0731 | 0.127 | 0.0569 | 0.0775 | 0.0728 | 0.0766 | 0.0711 | 0.062 | 0.0973 | 0.0851 |  | 0.0817 | 0.0632 | 0.105 |
| S121D | 0.0768 | 0.0858 | 0.0738 | 0.0722 | 0.0681 | 0.0713 | 0.101 |  | 0.0827 | 0.0769 | 0.0636 | 0.0711 | 0.0749 | 0.116 |  | 0.0589 | 0.104 | 0.074 | 0.0853 |
| H47V | 0.0593 | 0.0565 | 0.0799 |  |  | 0.0577 | 0.0659 | 0.0606 | 0.0597 | 0.0662 |  | 0.0669 | 0.0624 | 0.0596 | 0.0538 | 0.062 |  | 0.0632 |  |
| F173I | 0.068 |  | 0.0568 | 0.0682 | 0.0679 | 0.0742 | 0.105 | 0.0582 | 0.0521 | 0.0492 | 0.0685 |  |  | 0.12 | 0.0933 | 0.0716 | 0.085 | 0.0413 | 0.0666 |
| T30G | 0.0841 |  | 0.0671 | 0.0632 | 0.0558 | 0.0576 | 0.124 | 0.0478 | 0.0684 |  | 0.0692 | 0.0566 |  | 0.113 | 0.0889 | 0.0667 |  | 0.0572 | 0.0739 |
| T176W | 0.059 |  | 0.0575 | 0.0711 |  | 0.0603 | 0.0549 | 0.056 | 0.065 | 0.0518 |  | 0.0704 | 0.0454 | 0.0513 | 0.0589 |  | 0.0667 | 0.059 |  |
| P222Y | 0.0868 |  |  | 0.062 |  | 0.0507 | 0.115 | 0.0063 | 0.0719 |  | 0.0776 |  |  | 0.109 | 0.0731 |  | 0.102 |  |  |
| S124M | 0.052 |  | 0.0616 | 0.061 |  | 0.0805 | 0.12 |  | 0.0629 | 0.0478 | 0.0744 | 0.0995 | 0.0608 | 0.122 | 0.0813 |  |  | 0.0595 | 0.0776 |
| E108V | 0.0886 | 0.0598 | 0.0614 | 0.0576 | 0.0655 | 0.06 |  | 0.0562 | 0.0547 | 0.0552 | 0.0527 |  | 0.0593 | 0.0781 | 0.056 |  |  | 0.058 | 0.0571 |
| V220A | 0.0792 | 0.0827 | 0.0591 | 0.075 | 0.0497 | 0.0751 | 0.136 | 0.0641 | 0.0897 | 0.0696 | 0.0709 | 0.0765 | 0.0603 | 0.145 | 0.108 | 0.0604 | 0.0936 |  | 0.0993 |
| E195F | 0.0598 | 0.0827 | 0.0541 | 0.0681 | 0.0821 | 0.0559 |  | 0.0602 | 0.077 | 0.0661 | 0.0623 | 0.0179 | 0.0572 | 0.128 | 0.0676 | 0.0517 |  | 0.0643 | 0.0719 |
| Q97S | 0.0771 |  | 0.0577 |  | 0.0772 | 0.0726 |  |  |  |  |  |  |  | 0.1 |  |  | 0.0959 | 0.0769 |  |
| G28N | 0.0908 | 0.067 | 0.0656 | 0.0676 | 0.0438 | 0.0681 |  | 0.0568 | 0.0795 | 0.0734 |  |  | 0.0316 | 0.112 | 0.0772 |  | 0.0654 | 0.0777 | 0.0735 |
| T55Y | 0.0669 |  | 0.0658 | 0.107 | 0.0691 | 0.0691 | 0.106 | 0.069 | 0.0868 | 0.0605 | 0.0776 |  | 0.0548 |  | 0.0854 | 0.0462 |  | 0.0664 |  |
